Data on ten variants can be found in the supplement of paper PMC12217912.

B1: TEV protease; numbered along this chain (parent)
chain: MGESLFKGPRDYNPISSSICHLTNESDGHTTSLYGIGFGPFIITNKHLFRRNNGTLVVQSLHGVFKVKDTTTLQQHLVDGRDMIIIRMPKDFPPFPQKLKFREPQREERICLVTTNFQTKSMSSMVSDTSCTFPSGDGIFWKHWIQTKDGQCGSPLVSTRDGFIVGIHSASNFTNTNNYFTSVPKNFMELLTNQEAQQWVSGWRLNADSVLWGGHKVFMVKPEEPFQPVKEATQL

Some of the results follow. The full chains were built here from the parent and the listed change. Values near 0.05 are background.
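Further: Bxb1 expression induced with 0.2% (w/v) L-rhamnose at OD600 near 0.5, cultures sampled hourly, flipped fraction per protease–substrate barcode pair counted by paired-end Illumina sequencing.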

The test covers variants of B1. Briefly: raw area under fraction-flipped curve 0-4 h after induction (AUC4h, not background-subtracted), DNA-recorder readout of cleavage of the substrate (dimensionless); higher = more cleavage of the substrate by the protease variant. To be noted: temperature: 34 °C; time window: 0-4 h after rhamnose induction. As to the method: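 In vivo DNA recorder in E. coli TOP10(DE3) ΔrhaA at 34 °C. Each TEVp single-site mutant (parent TEVp 0) is paired with a single-site variant of the 7-mer TEVs (canonical ENLYFQ|S). The substrate sits between flexible linkers in a Bxb1-sfGFP-TEVs-SsrA fusion, so cleavage stabilises Bxb1 and speeds flipping of a recombination array, read by NGS. The value is the raw area under the fraction-flipped curve over 0-4 h after rhamnose induction (AUC4h), with ≥20 reads per time point. It is not background-subtracted; inactive controls average about 0.047.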
As for MGESLFKGPRDYNPISSSICHLTNESDGHTTSLYGIGFGPFIITNKHLFRRNNGTLVVQSLHGVFKVKDTTTLQQHLVDGRDMIIIRMPKDFCPFPQKLKFREPQREERICLVTTNFQTKSMSSMVSDTSCTFPSGDGIFWKHWIQTKDGQCGSPLVSTRDGFIVGIHSASNFTNTNNYFTSVPKNFMELLTNQEAQQWVSGWRLNADSVLWGGHKVFMVKPEEPFQPVKEATQL [P93C], the “area with substrate ENLYAQS” value was 0.0871, the “area with substrate ENLYEQS” value amounted to 0.0589, the “area with substrate ENLYHQS” value worked out at 0.0698 and the “area with substrate ENLYIQS” value amounted to 0.143. In addition, the “area with substrate ENLYNQS” value was 0.0578, the “area with substrate ENLYRQS” value is 0.0591 and the “area with substrate ENLYYQS” value was found to be 0.0749.
In the case of MGESLFKGPRDYNPISSSICHLTNESDGHTTSLYGIGFGPFIITNKHLFRRNNGTLVVQSLHGVFKVKDTTTLQQHLVDGRDMIIIRMPKDFLPFPQKLKFREPQREERICLVTTNFQTKSMSSMVSDTSCTFPSGDGIFWKHWIQTKDGQCGSPLVSTRDGFIVGIHSASNFTNTNNYFTSVPKNFMELLTNQEAQQWVSGWRLNADSVLWGGHKVFMVKPEEPFQPVKEATQL [P93L], the “area with substrate ENLYAQS” value came to 0.0644, the “area with substrate ENLYHQS” value is 0.0628, the “area with substrate ENLYIQS” value amounted to 0.105 and the “area with substrate ENLYNQS” value was 0.0864. Besides, the “area with substrate ENLYYQS” value was 0.0669.
Turning to MGESLFKGPRDYNPISSSICHLTNESDGHTTSLYGIGFGPFIITNKHLFRRNNGTLVVQSLHGVFKVKDTTTLQQHLVDGRDMIIIRMPKDNPPFPQKLKFREPQREERICLVTTNFQTKSMSSMVSDTSCTFPSGDGIFWKHWIQTKDGQCGSPLVSTRDGFIVGIHSASNFTNTNNYFTSVPKNFMELLTNQEAQQWVSGWRLNADSVLWGGHKVFMVKPEEPFQPVKEATQL [F92N], the “area with substrate ENLYAQS” value is 0.0628, the “area with substrate ENLYDQS” value was determined as 0.0507, the “area with substrate ENLYEQS” value was found to be 0.0555 and the “area with substrate ENLYHQS” value was determined as 0.0682. In addition, the “area with substrate ENLYIQS” value came out at 0.118, the “area with substrate ENLYMQS” value is 0.105, the “area with substrate ENLYNQS” value was 0.0072 and the “area with substrate ENLYPQS” value was found to be 0.0561. The “area with substrate ENLYRQS” value was found to be 0.0539 and the “area with substrate ENLYSQS” value was 0.0757.
For MGESLFKGPRDYNPISSSICHLTNESDGHTTSLYGIGFGPFIITNKHLFRRNNGTLVVQSLHGVFKVKDTTTLQQHLVDGRDMIIIRMPKDLPPFPQKLKFREPQREERICLVTTNFQTKSMSSMVSDTSCTFPSGDGIFWKHWIQTKDGQCGSPLVSTRDGFIVGIHSASNFTNTNNYFTSVPKNFMELLTNQEAQQWVSGWRLNADSVLWGGHKVFMVKPEEPFQPVKEATQL [F92L], the “area with substrate ENLYAQS” value came out at 0.0677, the “area with substrate ENLYGQS” value was determined as 0.0438, the “area with substrate ENLYHQS” value was determined as 0.0734 and the “area with substrate ENLYKQS” value was found to be 0.0597. For the same variant, the “area with substrate ENLYMQS” value was 0.1, the “area with substrate ENLYNQS” value was 0.0767, the “area with substrate ENLYPQS” value is 0.061 and the “area with substrate ENLYRQS” value was found to be 0.0578. The “area with substrate ENLYVQS” value worked out at 0.122 and the “area with substrate ENLYYQS” value worked out at 0.0924.
Turning to MGESLFKGPRDYNPISSSICHLTNESDGHTTSLYGIGFGPFIITNKHLFRRNNGTLVVQSLHGVFKVKDTTTLQQHLVDGRDMIIIRMPKDFPPFPQKLKFRMPQREERICLVTTNFQTKSMSSMVSDTSCTFPSGDGIFWKHWIQTKDGQCGSPLVSTRDGFIVGIHSASNFTNTNNYFTSVPKNFMELLTNQEAQQWVSGWRLNADSVLWGGHKVFMVKPEEPFQPVKEATQL [E103M], the “area with substrate ENLYAQS” value came out at 0.0702, the “area with substrate ENLYDQS” value amounted to 0.0606, the “area with substrate ENLYEQS” value is 0.0625 and the “area with substrate ENLYGQS” value amounted to 0.0629. Also, the “area with substrate ENLYHQS” value is 0.0608, the “area with substrate ENLYKQS” value was 0.0431, the “area with substrate ENLYLQS” value stood at 0.0748 and the “area with substrate ENLYMQS” value is 0.0799. For the same variant, the “area with substrate ENLYNQS” value was 0.0786, the “area with substrate ENLYPQS” value came out at 0.063, the “area with substrate ENLYRQS” value amounted to 0.0631 and the “area with substrate ENLYSQS” value is 0.0674. For the same variant, the “area with substrate ENLYTQS” value was determined as 0.0606, the “area with substrate ENLYVQS” value was 0.114, the “area with substrate ENLYWQS” value was determined as 0.0672 and the “area with substrate ENLYYQS” value was found to be 0.0459.
Turning to MGESLFKGPRDYNPISSSICHLTNESDGHTTSLYGIGFGPFIITNKHLFRRNNGTLVVQSLHGVFKVKDTTTLQQHLVDGRDMIIIRMPKDFPPFPQKLKFRDPQREERICLVTTNFQTKSMSSMVSDTSCTFPSGDGIFWKHWIQTKDGQCGSPLVSTRDGFIVGIHSASNFTNTNNYFTSVPKNFMELLTNQEAQQWVSGWRLNADSVLWGGHKVFMVKPEEPFQPVKEATQL [E103D], the “area with substrate ENLYAQS” value amounted to 0.0898, the “area with substrate ENLYGQS” value amounted to 0.056, the “area with substrate ENLYKQS” value is 0.0485 and the “area with substrate ENLYLQS” value was found to be 0.0859. The “area with substrate ENLYMQS” value was 0.0876, the “area with substrate ENLYNQS” value is 0.0648, the “area with substrate ENLYRQS” value was determined as 0.0553 and the “area with substrate ENLYSQS” value turned out to be 0.0798. Also, the “area with substrate ENLYTQS” value stood at 0.0845, the “area with substrate ENLYWQS” value turned out to be 0.0683 and the “area with substrate ENLYYQS” value is 0.0547.
As for MGESLFKGPRDYNPISSSICHLTNESDGHTTSLYGIGFGPFIITNKHLFRRNNGTLVVQSLHGVFKVKDTTTLQQHLVDGRDMIIIRMPKDFPPFPCKLKFREPQREERICLVTTNFQTKSMSSMVSDTSCTFPSGDGIFWKHWIQTKDGQCGSPLVSTRDGFIVGIHSASNFTNTNNYFTSVPKNFMELLTNQEAQQWVSGWRLNADSVLWGGHKVFMVKPEEPFQPVKEATQL [Q97C], the “area with substrate ENLYAQS” value is 0.0665, the “area with substrate ENLYHQS” value was determined as 0.0487, the “area with substrate ENLYIQS” value stood at 0.158 and the “area with substrate ENLYTQS” value came out at 0.0845. The “area with substrate ENLYVQS” value turned out to be 0.109.
On to MGESLFKGPRDYNPISSSICHLTNESDGHTTSLYGIGFGPFIITNKHLFRRNNGTLVVQSLHGVFKVKDTTTLQQHLVDGRDMIIIRMPKDFPVFPQKLKFREPQREERICLVTTNFQTKSMSSMVSDTSCTFPSGDGIFWKHWIQTKDGQCGSPLVSTRDGFIVGIHSASNFTNTNNYFTSVPKNFMELLTNQEAQQWVSGWRLNADSVLWGGHKVFMVKPEEPFQPVKEATQL [P94V], for which the “area with substrate ENLYAQS” value came out at 0.0739, the “area with substrate ENLYEQS” value came out at 0.0636, the “area with substrate ENLYGQS” value came to 0.0468 and the “area with substrate ENLYMQS” value turned out to be 0.12. Besides, the “area with substrate ENLYNQS” value amounted to 0.0832, the “area with substrate ENLYPQS” value was found to be 0.0732, the “area with substrate ENLYRQS” value is 0.0551 and the “area with substrate ENLYTQS” value was 0.0936. Besides, the “area with substrate ENLYVQS” value stood at 0.0967 and the “area with substrate ENLYYQS” value was 0.0877.
As for MGESLFKGPRDYNPISSSICHLTNESDGHTTSLYGIGFGPFIITNKHLFRRNNGTLVVQSLHGVFKVKDTTTLQQHLVDGRDMIIIRMPKDFPPFPQKLKFREPQREERICLVTQNFQTKSMSSMVSDTSCTFPSGDGIFWKHWIQTKDGQCGSPLVSTRDGFIVGIHSASNFTNTNNYFTSVPKNFMELLTNQEAQQWVSGWRLNADSVLWGGHKVFMVKPEEPFQPVKEATQL [T115Q], the “area with substrate ENLYAQS” value is 0.0826, the “area with substrate ENLYDQS” value stood at 0.0638, the “area with substrate ENLYEQS” value turned out to be 0.102 and the “area with substrate ENLYGQS” value turned out to be 0.0646. Moreover, the “area with substrate ENLYHQS” value is 0.0714, the “area with substrate ENLYIQS” value came to 0.123, the “area with substrate ENLYKQS” value was 0.0301 and the “area with substrate ENLYLQS” value turned out to be 0.0875. Also, the “area with substrate ENLYMQS” value was 0.107, the “area with substrate ENLYNQS” value was 0.0767, the “area with substrate ENLYQQS” value was 0.0725 and the “area with substrate ENLYTQS” value is 0.0955. The “area with substrate ENLYVQS” value came to 0.124 and the “area with substrate ENLYWQS” value was determined as 0.0908.
In the case of MGESLFKGPRDYNPISSSICHLTNESDGHTTSLYGIGFGPFIITNKHLFRRNNGTLVVQSLHGVFKVKDTTTLQQHLVDGRDMIIIRMPKDFPPLPQKLKFREPQREERICLVTTNFQTKSMSSMVSDTSCTFPSGDGIFWKHWIQTKDGQCGSPLVSTRDGFIVGIHSASNFTNTNNYFTSVPKNFMELLTNQEAQQWVSGWRLNADSVLWGGHKVFMVKPEEPFQPVKEATQL [F95L], the “area with substrate ENLYAQS” value is 0.0719, the “area with substrate ENLYEQS” value stood at 0.0647, the “area with substrate ENLYHQS” value turned out to be 0.0836 and the “area with substrate ENLYPQS” value amounted to 0.0683.
